Measured values published in ChEMBL document CHEMBL5308541, “MAIP: An Open-Source Tool to Enrich High-Throughput Screening Output and Identify Novel, Druglike Molecules with Antimalarial Activity” (ACS Med Chem Lett, 2023).
About 540 (0.36%) of roughly 150,000 compounds showed an effect of 50% or more. This is one part of the list.

Test system: Plasmodium falciparum
Assay: Primary screen in NF54 nanoGlo assay, in single point, at 2uM, 72h; a lower Z score goes with more inhibition
Format: functional, Erythrocyte
Settings: timepoint 72 hour

Row | Compound | % Inhibition [%] | Z score
1 | Cc1oc(-c2cccc(NC(=O)CCc3cccnc3)c2)nc1CNC(=O)c1cc2cc(F)ccc2[nH]1 | -11 | 1.9
2 | CCN1CCC[C@H](CN(C)C(=O)c2cccc(-c3cc(O)nc(N)n3)c2)C1 | 1 | -0.17
3 | CC1CCC(C)N1CCN1CCN(C(=O)C2COCCN2)CC1 (stereo not drawn) | -2 | 0.32
4 | O=C(C1CCC1)N(CCN1CCCC1)[C@H]1CCCN(Cc2ccc3cc[nH]c3c2)C1 | 10 | -1.81
5 | O=C(NC1(c2ccc3c(c2)OCCO3)CC1)c1cnn2c1CCC2 | 1 | -0.17
6 | COC(=O)c1ccc(NCc2nnc(-c3ccccc3)n2C)cc1F | -15 | 2.32
7 | Cc1ccc2nc(NC[C@H]3CCN(C4CC4)C3)cc(C)c2c1 | 55 | -8.34
8 | Cc1cc(O)c2cc(-c3cccc(C(=O)N[C@H]4CCC(=O)N(C)C4)c3)ccc2n1 | 3 | -0.48
9 | COCCN1CCN(C(=O)c2cccc(-c3cnn4cccnc34)c2)CC1 | -6 | 1.04
10 | CCN1CCN(c2ccc(CNc3ncnc4[nH]ncc34)cn2)CC1 | -3 | 0.71
11 | CN(c1ccc(-c2ccncc2)cn1)[C@H]1CCCN(c2cccnn2)C1 | -8 | 1.46
12 | O=C(C[C@H]1COCCN1)NC1CCN(Cc2ccc(-c3ccccc3)cc2)CC1 | 3 | -0.5
13 | O=C(NCc1ccc(CN2CCCC2)cc1)c1cc(-c2ccccc2)[nH]n1 | -7 | 1.07
14 | FC(F)(F)c1ccc(N2CCC[C@H](NC3CCN(Cc4ccco4)CC3)C2)nc1 | 25 | -4.29
15 | C[C@@H](C(=O)NC1CCCC1)N1CCC(c2nc(-c3ccncc3)cs2)CC1 | -2 | 0.46
16 | CCCN1CCC(Nc2nccc(OCc3ccccc3)n2)CC1 | -5 | 0.87
17 | Cc1ccc([C@@H]2CS(=O)(=O)CCN2C(=O)c2cccnc2)o1 | -6 | 0.96
18 | CCC[C@@H](CC(=O)O)NC(=O)N(C)Cc1cc(-c2ccccc2)[nH]n1 | 3 | -0.59
19 | CC(C)Oc1ccc(Cc2noc(C3CCN(C4CC4)CC3)n2)cc1 | -2 | 0.24
20 | CN(C)c1ncc(CN2CCC[C@H](CCC(=O)Nc3ccccc3F)C2)s1 | -1 | 0.1
21 | O=C(c1cccc(NC2CCCN(Cc3ccccc3)C2)c1)N1CCCCC1CCO (stereo not drawn) | -9 | 1.95

Row | Compound | % Inhibition [%] | Z score
22 | NC(=O)C1CCN(CCCNc2ncnc3ccccc23)CC1 | 14 | -2.8
23 | CC(C)S(=O)(=O)c1ccc(CC(=O)NCc2nc(N(C)C)nc(N3CCCC3)n2)cc1 | -10 | 1.77
24 | O=C(NCc1cnn2ccccc12)N1CCOC2(CCOCC2)CC1 | -3 | 0.4
25 | COc1cccc2[nH]cc(CCN[C@H]3CCCNc4ccccc43)c12 | -3 | 0.48
26 | CCn1ccnc1[C@@H]1CCCCN1C(=O)NCc1cnc(C)s1 | -10 | 1.69
27 | CC1([C@H]2CCCN(c3nnnn3CCc3ccco3)C2)OCCO1 | -11 | 2.01
28 | CC1NCCOC1c1ccc(-c2cnc3[nH]ccc3c2)cc1 (stereo not drawn) | 4 | -0.81
29 | O=C(NC1CC1)c1ccnc(N2CC[C@@]3(CCCN(CCC4CCCCC4)C3)C2)c1 | -11 | 1.94
30 | CCO[C@@H](C)c1ccc(-c2n[nH]c(OC)n2)cc1 | -3 | 0.46
31 | COc1ccc2oc(-c3noc(C4(c5ccccc5)CC4)n3)c(C)c2c1 | 1 | -0.09
32 | CCn1ccc(CN2CC3COCC2CN(Cc2ccc4[nH]ccc4c2)C3)n1 (stereo not drawn) | 7 | -1.08
33 | c1cncc(-c2ccnc(N3CCCO[C@@H](CN4CCOCC4)C3)n2)c1 | 2 | -0.28
34 | CC1CCN(c2ccc(C(=O)NC3CCN(C4CCN(C)CC4)CC3)cn2)CC1 | 26 | -3.91
35 | CCN(CCCN1CCOCC1)c1ccc2[nH]ccc2c1 | 3 | -0.62
36 | Cc1ccc(CN(CCCO)C(=O)[C@@H]2C[C@@H](O)CN2)cc1 | -8 | 1.72
37 | Cc1cc(Cl)cc(Cl)c1CNC(=O)NCC1CCNCC1 | -8 | 1.32
38 | COc1ccc(CN2CCN(C3CCN(c4ccc(F)cc4C)CC3)CC2=O)cc1 | -3 | 0.5
39 | Cc1nc(-c2cccc(-c3ccc(C(=O)NC[C@@H]4CCCN4)cc3)c2)no1 | 0 | 0.1
40 | CCN1CCN(CCNC(=O)CN(C)c2nn3c(NC(C)(C)C)c(-c4cccc(F)c4)nc3s2)CC1 | -8 | 1.42
41 | CN=C(NC1CC1C)N1CCC(C)(C)C1 (stereo not drawn) | -5 | 1.03
42 | CC(C)c1cc(C(=O)N2CCN(c3nsc4ccccc34)CC2)nc(N)n1 | -3 | 0.67

Row | Compound | % Inhibition [%] | Z score
43 | CC(C)OCc1cccc(CNC2CCN3CCCC3C2)c1 (stereo not drawn) | 0 | -0.08
44 | C[C@@H](CNC(=O)c1cccc(-c2ccc3c(=O)[nH]ccc3c2)c1)N1CCCC1 | -10 | 1.7
45 | O=c1[nH]c2ccc(Nc3nnc(-c4ccc5c(c4)OCO5)o3)cc2[nH]1 | -11 | 2.03
46 | Cc1nc(CCNC(=O)[C@H](C)Oc2ccc3c(c2)OCO3)nc2c1CCC2 | 0 | -0.07
47 | N#CC1(NC(=O)c2ccc(-n3ccnn3)cc2)CCOCC1 | -1 | 0.18
48 | NC(=O)c1ccccc1N1CCC[C@H](NCc2cccc3[nH]ccc23)C1 | -2 | 0.38
49 | N#Cc1cccc(NCCCN2CCC(O)CC2)n1 | -3 | 0.52
50 | CCCCN1CCCC[C@@H]1CNc1nn2c(=O)cc(-c3ccccc3)nc2s1 | 10 | -2.02
51 | NC(=O)[C@]1(O)CCN(c2ccnc3ccc(Oc4ccccc4)cc23)C1 | 38 | -8.24
52 | CN(C)c1nsc(/C=C/C2CCCCC2)n1 | -21 | 3.16
53 | NC1CCC(NC(=O)c2ccc(-c3ccc4occc4c3)cc2)C1 (stereo not drawn) | 7 | -1.46
54 | N#Cc1cnc(N2CCC(c3c[nH]c4cc(F)ccc34)CC2)cn1 | 4 | -0.72
55 | CCCCNCc1[nH]c2ccccc2c1Cl | -4 | 0.75
56 | CCN1CCN(C2(CNc3oc(-c4ccc(Cl)cc4)nc3C#N)CCCCC2)CC1 | 6 | -0.98
57 | CC1(C)NC(=O)N(C[C@H](O)CN2CCN(c3nsc4ccccc34)CC2)C1=O | -2 | 0.39
58 | CCC1NCCC1NS(=O)(=O)C1CC1 (stereo not drawn) | 5 | -1.04
59 | CC(C)C1N(C)CC12C[C@@H](O)[C@H](NCc1ccc3occc3c1)C2 (stereo partly drawn) | -1 | 0.09
60 | COc1ccc(OC)c2[nH]c(C(=O)Nc3cccc(OCCN4CCOCC4)c3)cc12 | -3 | 0.48
61 | CCN1CCN(C(C)(C)CNc2ncc(F)c(NC)n2)CC1 | 2 | -0.38
62 | CC(CN1CCOCC1)N1CCCC(Oc2ccc(Cl)cn2)C1 (stereo not drawn) | 5 | -0.95
63 | c1cn2nc(N[C@H]3CCN(CC4CCOCC4)C3)ccc2n1 | -4 | 0.57

Row | Compound | % Inhibition [%] | Z score
64 | Cc1cc(N2CCC(NC(=O)N3CCC(N4CCCC4)CC3)CC2)nc(C)n1 | 1 | -0.17
65 | COc1ccc2nc(C=Cc3cccc(F)c3)sc2c1 | -13 | 2.01
66 | c1ccc2c(CCNc3ccc(-c4nc(C5CC5)no4)cn3)c[nH]c2c1 | -15 | 2.22
67 | Cc1cc(NCc2ccc(CN3CCOCC3)cc2)nc2ccccc12 | 0 | 0.06
68 | O=C(CN1CCOC1=O)N1CCc2[nH]cnc2C1 | -1 | 0.14
69 | Oc1ccc(-c2ccnc3ccccc23)cc1OC(F)(F)F | 2 | -0.38
70 | CN1CCC[C@H](N2CCN(C(=O)c3ccnc4ccncc34)CC2)C1 | -3 | 0.4
71 | Cc1ccc2cc(CN3CCNCC3)c(N3CCN(CCO)CC3)nc2c1 | 8 | -1.77
72 | CC(C)C[C@H]1CN(C)CCN1C(=O)c1ncnc2[nH]ccc12 | 0 | -0.06
73 | COc1ccnc(NCc2ccc(N3CC(C)OC(C)C3)nc2)n1 (stereo not drawn) | -7 | 1.27
74 | O[C@H]1CCCN(c2ccnc(NCCCn3ncc4ccccc43)n2)C1 | -7 | 1.14
75 | COc1cccc2c1OC[C@@H](Nc1nccc(N3CCC(O)CC3)n1)C2 | -22 | 3.84
76 | CCn1ccc2cc(NC(=O)c3cc(=O)c4ccccc4[nH]3)ccc21 | 4 | -0.93
77 | c1ccc2c(Nc3ccc(Nc4cccc5ccccc45)cc3)cccc2c1 | -12 | 1.99
78 | c1cc2cc(-c3cn([C@H]4CCCNC4)nn3)ccc2[nH]1 | 8 | -1.16
79 | COc1ccccc1OCCN1CCCN(S(=O)(=O)c2cccc3cnccc23)CC1 | -10 | 1.52
80 | Cn1cc(-c2ncc(C(=O)NC3CCN(C[C@H]4CCOC4)CC3)s2)cn1 | -11 | 1.64
81 | Cc1cc2cc[nH]c2cc1NC(=O)N1CCN(c2cnccn2)CC1 | -8 | 1.55
82 | CN(CCCCN1CCOCC1)Cc1cccc2nonc12 | -4 | 0.77
83 | Cc1nc(NC[C@@H](c2cccnc2)N2CCCCC2)c2ccsc2n1 | 11 | -1.93
84 | O=C(C1CCCC1)N1CC[C@H](Nc2nnc(-c3ccccn3)s2)C1 | -16 | 3.13
